Test results from the antibiotic and cytotoxicity screens of Wong et al. (2023).
The other results are listed elsewhere or left out.

Each molecule was assayed on HSkMC (human skeletal muscle cells) (assay: cytotoxicity call (relative viability < 0.9)). Conditions: 10 µM.
In the case of `C[C@H]1CN([C@@H](C)CO)C(=O)c2cc(NS(C)(=O)=O)ccc2O[C@@H]1CN(C)C(=O)NC1CCCCC1`, the cytotoxicity call is reported as “inactive”.
In the case of `C[C@H](CO)N1C[C@H](C)[C@H](CN(C)Cc2ccc(C(F)(F)F)cc2)Oc2ccc(NC(=O)Cc3cn(C)c4ccccc34)cc2C1=O`, the cytotoxicity call is reported as “inactive”.
With `Cc1ccccc1S(=O)(=O)N1C[C@@H](O)COC[C@H]2O[C@H](CC(=O)NCc3ccc(Cl)c(Cl)c3)CC[C@@H]21` the cytotoxicity call was “inactive”.
For `CC1OC(OC2C(O)CC(OC3C(O)CC(OC4CCC5(C)C(CCC6C5CC(O)C5(C)C(C7=CC(=O)OC7)CCC65O)C4)OC3C)OC2C)CC(O)C1O` (stereo not given), the cytotoxicity call was “active”.
For `C[C@@H]1CN([C@@H](C)CO)C(=O)Cc2cc(NC(=O)Nc3cccc4ccccc34)ccc2O[C@H]1CN(C)S(=O)(=O)c1ccc(F)cc1`, the cytotoxicity call was “inactive”.
`C[C@H](CO)N1C[C@H](C)[C@H](CN(C)Cc2ccc(-c3ccccc3)cc2)Oc2ccc(NS(=O)(=O)c3ccc(F)cc3)cc2C1=O` was tested, and the cytotoxicity call was “inactive”.
For `CC(=O)N1[C@@H](CO)[C@@H](c2ccccc2)C12CN(C(=O)CN1CCOCC1)C2`, the cytotoxicity call was “inactive”.
With `C[C@H](CO)N1C[C@H](C)[C@@H](CN(C)Cc2ccc(Oc3ccccc3)cc2)Oc2ccc(NC(=O)NC3CCCCC3)cc2C1=O` the cytotoxicity call was “inactive”.
For `CS(=O)(=O)N(CCC#N)Cc1ccco1`, the cytotoxicity call was “inactive”.
For `Cc1noc(C)c1NC(=O)Nc1ccc2c(c1)CC(=O)N([C@H](C)CO)C[C@H](C)[C@H](CN(C)S(=O)(=O)c1cccs1)O2`, the cytotoxicity call was “inactive”.
In the case of `CCCc1cc(=O)oc2cc3occ(-c4ccccc4)c3cc12`, the cytotoxicity call is reported as “inactive”.
With `C[C@@H]1CN([C@H](C)CO)C(=O)c2cc(NC(=O)C3CCCCC3)ccc2O[C@@H]1CN(C)Cc1ccc(Oc2ccccc2)cc1` the cytotoxicity call was “inactive”.
`C[C@H]1CN([C@@H](C)CO)C(=O)c2cc(C#CC3(O)CCCC3)cnc2O[C@@H]1CN(C)C(=O)Cc1cccnc1` was tested, and the cytotoxicity call was “inactive”.
`COc1ccc(S(=O)(=O)N(C)C[C@@H]2Oc3ccc(NC(=O)C4CC4)cc3C(=O)N([C@@H](C)CO)C[C@@H]2C)cc1` was tested, and the cytotoxicity call was “inactive”.
For `NC(=S)Nc1nc2ccccc2[nH]c1=O`, the cytotoxicity call was “inactive”.
With `COc1ccc(S(=O)(=O)Nc2cccc3c2O[C@@H](CN(C)CC2CC2)[C@@H](C)CN([C@@H](C)CO)C3=O)cc1` the cytotoxicity call was “inactive”.
For `COC(=O)C[C@H]1CC[C@H]2[C@@H](COC[C@@H](O)CN2S(=O)(=O)c2ccccc2C)O1`, the cytotoxicity call was “inactive”.
In the case of `COc1cccc(NC(=O)N(C)C[C@@H]2Oc3cc(C#CC4(O)CCCC4)ccc3S(=O)(=O)N([C@H](C)CO)C[C@@H]2C)c1`, the cytotoxicity call is reported as “inactive”.
`COc1ccc(NC(=O)N(C)C[C@H]2Oc3ccc(NC(=O)CCCN(C)C)cc3C(=O)N([C@@H](C)CO)C[C@@H]2C)cc1` was tested, and the cytotoxicity call was “inactive”.
`C[C@@H]1CN([C@H](C)CO)C(=O)c2cc(NC(=O)Nc3ccccc3)ccc2O[C@@H](C)CCCCO[C@@H]1CN(C)Cc1ccc(C(F)(F)F)cc1` was tested, and the cytotoxicity call was “inactive”.
For `Cc1noc(C)c1NC(=O)N(C)C[C@@H]1OCCCC[C@H](C)Oc2ccc(NC(=O)CCC(F)(F)F)cc2C(=O)N([C@H](C)CO)C[C@H]1C`, the cytotoxicity call was “inactive”.
`Cc1cc2cc3c(C)cc(=O)oc3c(C)c2o1` was tested, and the cytotoxicity call was “inactive”.
`COc1ccccc1S(=O)(=O)N[C@@H]1C=C[C@H](CC(=O)N2CCOCC2)O[C@H]1CO` was tested, and the cytotoxicity call was “inactive”.
In the case of `Cc1noc(C)c1S(=O)(=O)N(C)C[C@@H]1Oc2ccc(NC(=O)Cc3ccccc3)cc2CC(=O)N([C@H](C)CO)C[C@@H]1C`, the cytotoxicity call is reported as “inactive”.
For `O=C(O)c1n[nH]c2c1CCC2`, the cytotoxicity call was “inactive”.
With `Cc1noc(NS(=O)(=O)c2ccc(N)cc2)c1C` the cytotoxicity call was “inactive”.
For `COCC(=O)Nc1ccc2c(c1)[C@@H]1C[C@@H](CC(=O)N3CCOCC3)O[C@H](CO)[C@@H]1O2`, the cytotoxicity call was “inactive”.
For `COc1ccc(CNC(=O)C[C@H]2CC[C@H]3[C@H](COc4ccc(NC(=O)C5CC5)cc4C(=O)N3C)O2)cc1`, the cytotoxicity call was “inactive”.
With `C[C@@H]1CCCCO[C@@H](CN(C)Cc2ccncc2)[C@H](C)CN([C@H](C)CO)C(=O)c2cc(NC(=O)Cc3ccccc3)ccc2O1` the cytotoxicity call was “inactive”.
In the case of `C[C@@H]1CCCCO[C@H](CN(C)Cc2ccncc2)[C@H](C)CN([C@H](C)CO)C(=O)c2cc(NC(=O)Nc3ccccc3)ccc2O1`, the cytotoxicity call is reported as “inactive”.
`Cc1ccc(S(=O)(=O)Nc2ccc3c(c2)C(=O)N([C@H](C)CO)C[C@H](C)[C@H](CN(C)S(=O)(=O)c2ccc(F)cc2)O3)cc1` was tested, and the cytotoxicity call was “inactive”.
In the case of `Cc1ccc(S(=O)(=O)N(C)C[C@@H]2Oc3ccc(NC(=O)CCN4CCOCC4)cc3CC(=O)N([C@H](C)CO)C[C@@H]2C)cc1`, the cytotoxicity call is reported as “inactive”.
With `C[C@@H]1CCCCO[C@@H](CN(C)Cc2ccc(Cl)c(Cl)c2)[C@H](C)CN([C@@H](C)CO)C(=O)c2cc(NS(=O)(=O)c3ccccc3)ccc2O1` the cytotoxicity call was “active”.
`NC(=O)[C@@H]1CCOC1` was tested, and the cytotoxicity call was “inactive”.
`C[C@@H]1CCCCO[C@@H](CN(C)S(=O)(=O)c2ccc(F)cc2)[C@H](C)CN([C@H](C)CO)C(=O)c2cc(NC(=O)Nc3ccc(F)cc3)ccc2O1` was tested, and the cytotoxicity call was “inactive”.
For `COCCCN(C[C@]1(O)CC[C@H]2C3=CC=C4C[C@@H](O)CC[C@]4(C)[C@@H]3CC[C@@]21C)C(=O)O[C@H]1C[C@@H](C)CC[C@@H]1C(C)C`, the cytotoxicity call was “inactive”.
For `COc1ccc(S(=O)(=O)Nc2ccc3c(c2)CC(=O)N([C@@H](C)CO)C[C@H](C)[C@H](CN(C)S(=O)(=O)c2cn(C)cn2)O3)cc1`, the cytotoxicity call was “inactive”.
With `C[C@@H]1CN([C@H](C)CO)C(=O)c2cccc(NC(=O)Nc3cccc4ccccc34)c2O[C@H]1CN(C)C(=O)Nc1ccccc1` the cytotoxicity call was “inactive”.
`Cc1ccc(S(=O)(=O)N(C)C[C@@H]2Oc3ccc(NC(=O)NC(C)C)cc3CC(=O)N([C@@H](C)CO)C[C@@H]2C)cc1` was tested, and the cytotoxicity call was “inactive”.
With `C[C@@H]1CN([C@H](C)CO)C(=O)c2cccc(NS(C)(=O)=O)c2O[C@H]1CN(C)C(=O)NC1CCCCC1` the cytotoxicity call was “inactive”.
